Among all 270,000 compounds or so, about 620 (0.23%) were called active. Inconclusive means that the source gave no clear call. Such entries were picked first, then a sample of the others. Calls follow the shape of the dose curve; as a rule, active = well fitted inhibition curve with a large enough effect in the polarisation, with a control signal flat (not every such curve was filed as active); inconclusive = small, poorly fitted or top-dose-only effect, or effect the other way, or a change in a side signal; inactive = no such curve, though single readings can be large or run the other way; the % refers to the polarisation. Potencies beside an inconclusive call are fits to weak or partial responses and may not hold up. A note “side channel” means that the fit belongs to a control or component signal, not to the main read-out.
Biological target: Menin (Homo sapiens) (UniProt O00255)
UniProt O00255, sequence (O00255 whole entry, looked up): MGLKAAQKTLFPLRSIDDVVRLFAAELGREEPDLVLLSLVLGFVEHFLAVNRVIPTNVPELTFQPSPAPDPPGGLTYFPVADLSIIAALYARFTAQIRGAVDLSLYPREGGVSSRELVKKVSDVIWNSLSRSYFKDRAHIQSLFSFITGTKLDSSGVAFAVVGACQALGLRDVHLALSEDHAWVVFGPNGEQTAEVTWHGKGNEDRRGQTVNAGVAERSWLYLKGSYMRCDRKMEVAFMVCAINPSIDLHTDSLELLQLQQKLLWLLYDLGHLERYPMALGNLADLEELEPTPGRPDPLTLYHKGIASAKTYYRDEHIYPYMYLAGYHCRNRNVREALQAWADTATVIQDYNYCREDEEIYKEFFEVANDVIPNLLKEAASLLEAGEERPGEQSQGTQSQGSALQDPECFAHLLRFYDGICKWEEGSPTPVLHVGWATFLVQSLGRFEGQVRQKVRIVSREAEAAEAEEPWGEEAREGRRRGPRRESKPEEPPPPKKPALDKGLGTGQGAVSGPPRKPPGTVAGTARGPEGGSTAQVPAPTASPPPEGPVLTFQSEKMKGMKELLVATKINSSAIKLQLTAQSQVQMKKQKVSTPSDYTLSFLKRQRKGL
Assay: qHTS Assay for Inhibitors Targeting the Menin-MLL Interaction in MLL Related Leukemias: Competition With Texas Red Labeled MLL-derived Mutant Peptide; as to FP activity change, negative = inhibition: % of control where 0% means no effect
Conditions: fluorescence polarization; FP activity change, negative = inhibition: at 61.6 µM (top of the series)
Potency is read from the fitted curve at half-maximal effect; tags tell the direction and shape of the fitted curve or compound fluorescence and quenching.

Compound	Potency	FP activity change, negative = inhibition
Cc1cc(C(=O)NCC23CC4CC(CC(C4)C2)C3)c(C)o1	inconclusive: 20 µM [fluorescent, side channel, partial curve]	
COc1ccc(NC(=O)/C=C/C(=O)O)cc1Cl		inactive: -3.5%
O=C(O)c1cccc(NC(=O)c2cc(NC(=O)c3ccccc3)cc(NC(=O)c3ccccc3)c2)c1	inconclusive: 22.4 µM [quencher, side channel, partial curve]	
COc1ccc(NC(=O)Cn2nnc(-c3ccccc3NC(=O)C3CC3)n2)cc1	inconclusive: 22.4 µM [quencher, side channel, partial curve]	
Clc1cccc(CN2CCc3c([nH]c4ccccc34)C2)c1Cl	inconclusive: 20 µM [quencher, side channel, partial curve]	
COc1ccc(OC)c(-c2csc(NC(=O)c3ccc(F)cc3)n2)c1	inconclusive: 25.1 µM [quencher, side channel, single point]	
COc1ccc(OC)c(Nc2ncnc3sc(-c4ccccc4)cc23)c1	inconclusive: 10 µM [quencher, side channel, partial curve]	
CCn1cc(C(=O)OCC(=O)NCc2ccccc2Cl)c(=O)c2ccc(C)nc21	inconclusive: 10 µM [fluorescent, side channel, partial curve]	
O=C(NCc1ccccc1)c1sc(=S)n2c1[nH]c(=O)c1ccccc12	inconclusive: 35.5 µM [quencher, partial curve]	
Clc1ccccc1-c1ccc2ncnc(NC3CCNCC3)c2c1	inconclusive: 39.8 µM [inhibitor, single point]	
c1ccc(CCCNc2ncccn2)cc1		inactive: -0.151%
CCN(CC)CCSc1nc2ccccc2n1Cc1ccccc1	inconclusive: 35.5 µM [fluorescent, side channel, single point]	
COc1cc(/C=C2\SC(=S)N(CC(=O)O)C2=O)ccc1OC(=O)c1ccco1	inconclusive: 15.8 µM [fluorescent, side channel, partial curve]	
COc1ccc(CN2CCC(C(=O)c3ccc(F)cc3)CC2)cc1		inactive: -9.03%
CCCCCC(=O)NNC(=O)c1c(O)c2ccccc2n(CC)c1=O	inconclusive: 15.8 µM [quencher, side channel, partial curve]	
O=C(O)[C@@H](O)[C@@H](O)[C@H](O)C(=O)CO		inactive: -2.02%
Cc1ccc(NC(=O)CSc2nc3ccccc3c(=O)n2CCCN2CCCCC2)cc1C	inconclusive: 11.2 µM [fluorescent, side channel, partial curve]	
Cc1cc2[nH]cnc2c([N+](=O)[O-])c1C	inconclusive: 0.708 µM [inhibitor, full curve, poor fit]	
O=C(O)c1cccc(Nc2nc3ccccc3nc2NS(=O)(=O)c2cccs2)c1	inconclusive: 17.8 µM [quencher, side channel, partial curve]	

Compound	Potency	FP activity change, negative = inhibition
CSc1ccc(C2NC(=O)c3c(sc4c3CCN(C)C4)N2)cc1 (configuration not stated)	inconclusive: 39.8 µM [fluorescent, side channel, single point]	
CN(C1=NC(=O)C(CC(=O)Nc2ccc(Br)cc2)S1)c1ccc(O)cc1 (configuration not stated)	inconclusive: 25.1 µM [quencher, side channel, single point]	
CCc1ccc(C2c3[nH]c4ccccc4c3CCN2C(=O)c2cc(C)nn2C)cc1 (configuration not stated)	inconclusive: 7.94 µM [fluorescent, side channel, full curve, poor fit]	
Cc1c(-c2cccc(Cl)c2)nc2ccccc2c1C(=O)OCC(=O)Nc1ccc2c(c1)OCO2	inconclusive: 10 µM [quencher, side channel, partial curve]	
NC(=O)c1ccc(N2CCN(c3ccc(O)cc3)CC2)c([N+](=O)[O-])c1	inconclusive: 11.2 µM [quencher, side channel, partial curve]	
FC(F)(F)c1cccc(NC(=S)NCc2ccc(Cl)cc2)c1	inconclusive: 12.6 µM [quencher, side channel, partial curve]	
O=C1c2ccccc2C(=O)c2c1cccc2N1CCOCC1	inconclusive: 39.8 µM [inhibitor, single point]	
CCCc1[nH]n(-c2ccc([N+](=O)[O-])cc2)c(=O)c1C=NCCc1c[nH]c2ccccc12	inconclusive: 1.58 µM [quencher, side channel, full curve]	
COc1ccccc1NS(=O)(=O)c1cc(NC(=O)CCC(=O)c2cccs2)ccc1Cl	inconclusive: 12.6 µM [quencher, side channel, partial curve]	
FC(F)(F)c1ccc2c(c1)NCC1CCCN21 (configuration not stated)	inconclusive: 12.6 µM [quencher, side channel, partial curve]	
Cc1cc(NC(=O)CCC(=O)N(c2ccccc2)C(C(=O)NC2CCCCC2)c2cccs2)no1 (configuration not stated)	inconclusive: 11.2 µM [inhibitor, partial curve]	
COc1ccc(C(=O)N/N=C/c2sc3ccccc3c2O)cc1	inconclusive: 12.6 µM [quencher, side channel, single point]	
N#CCC(=O)Nc1nc(-c2ccc3c(c2)OCCO3)cs1	inconclusive: 2.82 µM [quencher, side channel, partial curve, poor fit]	
Cc1ccc2c(C)c(C(=O)NCc3ccc(S(N)(=O)=O)cc3)oc2c1	inconclusive: 39.8 µM [fluorescent, side channel, single point]	
Cc1ccc(C(=O)Nc2ncnc3sc4c(c23)CCCCC4)cc1	inconclusive: 35.5 µM [quencher, side channel, single point]	
C=C1C(n2cnc3c(=O)[nH]c(N)nc32)C[C@H](O)[C@H]1CO (some centres not stated)		inactive: -0.664%
Cc1cccc(C2Nc3cccc4cccc(c34)N2)c1	inconclusive: 11.2 µM [quencher, side channel, partial curve]	
CSc1c(CC(=O)Nc2ccc(F)cc2)n(Cc2ccccc2)c2ccccc12	inconclusive: 12.6 µM [quencher, side channel, partial curve]	

— PubChem BioAssay AID1768 (National Center for Advancing Translational Sciences (NCATS), 2009)
